Experimental data as given in the BET-seq Pho4 binding data (Le et al. 2018).
This is one part of the list. These are noisy estimates, calculated here from bound and input reads.

The sequences below were run against T1, Pho4 (S. cerevisiae) (UniProt P07270) (assay: relative binding free energy (BET-seq); higher = weaker binding). Details: reference: library average.
T1 sequence: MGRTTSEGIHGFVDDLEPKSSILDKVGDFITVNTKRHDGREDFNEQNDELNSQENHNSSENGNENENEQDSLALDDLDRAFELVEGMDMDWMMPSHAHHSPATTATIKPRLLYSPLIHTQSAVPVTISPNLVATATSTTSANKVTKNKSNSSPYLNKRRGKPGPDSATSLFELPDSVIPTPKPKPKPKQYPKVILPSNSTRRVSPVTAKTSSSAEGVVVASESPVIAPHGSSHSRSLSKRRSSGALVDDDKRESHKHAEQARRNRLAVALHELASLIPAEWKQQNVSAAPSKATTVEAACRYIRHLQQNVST

Sequence	relative binding free energy [kcal/mol]
AGTAGCACGTGGCGTG	-0.21
GGGTTCACGTGGCTAA	0.25
TGAGTCACGTGCGGGC	-0.09
TATTACACGTGTTAGG	0.14
ATCGGCACGTGGGTTG	-0.21
TGGCCCACGTGGGCGG	-0.31
AATGACACGTGTATGG	-0.05
AGGGACACGTGTTGAG	0.1
TATGTCACGTGGGGGT	-0.08
GCGGGCACGTGCTGTA	-0.04
TCGGACACGTGGTGTG	0.12
AGGCACACGTGATTGT	0.11
AGGAGCACGTGGTCTG	-0.1
ATGGTCACGTGGGTAT	0.01
TTTTACACGTGGGGTT	-0.04
TTCGTCACGTGCTTTG	0.19
GATTGCACGTGAGGTA	0.26
TTTTACACGTGAAGAA	0.36
CAGTGCACGTGGAGGA	-0.02
TTGATCACGTGGCTAT	0.15
ATAGGCACGTGTAACT	0.07
TTTTGCACGTGTGTAC	0.07
AGTAGCACGTGGTTCA	-0.2

Sequence	relative binding free energy [kcal/mol]
AGTAGCACGTGAATAT	0.29
ACGCGCACGTGGCGGG	-0.19
TGCAACACGTGTTAGT	-0.03
CCTGGCACGTGGCGGT	-0.21
ATTTTCACGTGGATAG	0.2
GTAGCCACGTGAAGGT	0.26
TGCTACACGTGGGTCG	-0.13
TTGTTCACGTGTCGGG	0.39
TTGTGCACGTGTGTTG	0.11
AGGTCCACGTGGAGTG	-0.06
ATGGGCACGTGTCATT	-0.06
ATGGACACGTGGGTCG	-0.15
TTAAACACGTGTTAAT	0.09
GTATACACGTGGAGTA	-0.04
TAAATCACGTGGGCTG	-0.01
ATAAACACGTGGGGAG	-0.09
TTGATCACGTGACGGG	0.26
GGAGGCACGTGAGAGT	0.2
GGGCGCACGTGGAAGT	-0.04
TTGCACACGTGCGGTT	0.19
GCAAGCACGTGGGCGG	-0.3
AAGTACACGTGAATTT	0.31
TGTTACACGTGTAGGG	0.13

Sequence	relative binding free energy [kcal/mol]
CGTGTCACGTGTCTGG	-0.02
AGATGCACGTGTGCGA	0.06
GAGTTCACGTGTGGAT	0.45
CGTGCCACGTGTTATG	-0.09
TGGATCACGTGATATT	0.2
TATAGCACGTGAGGTA	0.09
TTCAGCACGTGAGTGA	0.19
GTTATCACGTGGTTTG	0.07
TGAGGCACGTGAAGTT	0.23
GATAGCACGTGGTGGA	-0.09
TTTTTCACGTGTACCG	0.33
TAAGGCACGTGTCCGG	-0.11
GGGGTCACGTGTTCAT	0.18
TGAAACACGTGGGTCA	-0.04
AGCTACACGTGGGGTT	-0.04
TTGTGCACGTGCGTAG	-0.04
GAATTCACGTGGGATA	0.39
AAGGACACGTGAAGGT	0.18
TAGCGCACGTGTATGG	-0.07
CTTGTCACGTGGGGTA	-0.08
TGAAGCACGTGAGTTA	0.13
GGTGGCACGTGTGAAG	0.1
CTTGTCACGTGCGCGG	-0.1

Sequence	relative binding free energy [kcal/mol]
GTTATCACGTGTTTCA	0.14
ACGATCACGTGTGGAT	0.27
TTGCGCACGTGTGGTA	-0.14
TGTGGCACGTGATTTA	-0.01
TCTTGCACGTGGTAGG	-0.04
ATTTTCACGTGTCGTA	0.42
CGTGGCACGTGGATGT	0.04
CTATACACGTGGTTGG	-0.02
TCATTCACGTGAATGG	0.35
TGGTACACGTGCTCTT	0.08
TGTGTCACGTGTGACA	0.12
TTAAGCACGTGTGTCT	-0.04
GGTGGCACGTGCGGCT	-0.12
CGTTTCACGTGGGTAA	0.18
AGGGGCACGTGTGGCC	-0.02
TAGGTCACGTGTCGAT	0.15
AAGTTCACGTGTATAA	0.34
TTTAACACGTGTGATG	0.07
TAAATCACGTGATTTG	0.1
TTGCGCACGTGGAGAT	-0.04
GGGGTCACGTGGCGGA	0.09
GAGTTCACGTGGAATA	0.32
AATTTCACGTGAGTGA	0.33

Sequence	relative binding free energy [kcal/mol]
TTTCACACGTGTGGGG	0.11
ATGATCACGTGGCGTT	0.1
GGTAGCACGTGCGTGA	-0.1
TGGTTCACGTGTCCAG	0.31
CTCTTCACGTGTTATG	0.33
GGTCCCACGTGGGGTT	-0.34
TTAGCCACGTGATAGG	0.22
ATATACACGTGGAAGG	-0.01
TATGACACGTGATAGT	0.2
TGGTTCACGTGTGCGT	0.13
TTGAACACGTGGACGG	0.23
CGTGACACGTGAATGT	0.39
CGTATCACGTGTTATT	-0.01
GCATACACGTGGTGTT	-0.03
GTGGCCACGTGGCGGC	-0.04
GGTTACACGTGCGGGG	0.1
GGGTACACGTGTATGT	0.08
GGTCTCACGTGAGTTT	0.32
CTTGACACGTGGGTGC	-0.22
GGTGCCACGTGGGTGC	-0.33
TGAGGCACGTGTACGT	-0.12
GTAGTCACGTGTTGGG	0.11
GTGTACACGTGGGGTA	-0.08
